Source: paper PMC6919601, “Identification of Plasmodium dipeptidyl aminopeptidase allosteric inhibitors by high throughput screening” (PLoS ONE, 2019)
In all, about 110,000 compounds went through this assay and about 230 (0.21%) showed an effect of 50% or more. This is one part of the list.
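Also: 30 min substrate incubation versus DMSO and 10 µM JCP410 controls.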

What follows are compounds tested against DPAP1 (Plasmodium falciparum, UniProt Q8IIJ9) (assay: primary screen, percent inhibition; read by cleavage of a fluorogenic dipeptide substrate; higher = more effect of the substance).
Sequence of DPAP1 (Q8IIJ9 whole entry, looked up): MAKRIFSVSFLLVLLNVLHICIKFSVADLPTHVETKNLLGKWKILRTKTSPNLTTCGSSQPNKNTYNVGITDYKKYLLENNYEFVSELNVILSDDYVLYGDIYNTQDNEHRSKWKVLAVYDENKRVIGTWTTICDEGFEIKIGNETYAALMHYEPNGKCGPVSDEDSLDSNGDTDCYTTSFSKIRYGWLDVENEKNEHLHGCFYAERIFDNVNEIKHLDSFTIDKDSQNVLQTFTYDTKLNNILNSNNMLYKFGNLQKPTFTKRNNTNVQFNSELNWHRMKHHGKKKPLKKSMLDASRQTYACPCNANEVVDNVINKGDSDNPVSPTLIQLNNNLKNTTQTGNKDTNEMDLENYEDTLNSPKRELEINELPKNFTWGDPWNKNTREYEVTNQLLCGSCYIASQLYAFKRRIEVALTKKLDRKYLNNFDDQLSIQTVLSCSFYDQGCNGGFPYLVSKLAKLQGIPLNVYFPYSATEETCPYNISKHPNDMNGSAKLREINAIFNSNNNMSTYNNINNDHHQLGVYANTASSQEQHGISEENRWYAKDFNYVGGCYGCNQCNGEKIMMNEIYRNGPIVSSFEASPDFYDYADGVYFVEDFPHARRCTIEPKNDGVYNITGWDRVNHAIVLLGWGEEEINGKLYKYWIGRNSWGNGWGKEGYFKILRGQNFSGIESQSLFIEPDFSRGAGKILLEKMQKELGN
Parameters: species or system P. falciparum D10 trophozoite lysates; single well
In the case of `COc1ccc(CCN(C)CCC(=O)Nc2c(C)cc(C)cc2C)cc1OC`, the “% Inhibition @ 10 uM” value is reported as 10.7%.
For `Cc1ccccc1OCC(=O)Nc1ccc(F)cc1F`, the “% Inhibition @ 10 uM” value was 1.04%.
`CCOC(=O)C1=C(N)Oc2cc(C)n(Cc3cccnc3)c(=O)c2C1c1cccnc1` (stereo not drawn) was tested, and the “% Inhibition @ 10 uM” value was 3.93%.
`OC1CCN(Cc2ccc3ccccc3c2)CC1` was tested, and the “% Inhibition @ 10 uM” value was 3.16%.
For `C=CCN1C(=O)C(CC(=O)Nc2cccc(C(C)=O)c2)S/C1=N\c1ccc(C)c(C)c1` (stereo not drawn), the “% Inhibition @ 10 uM” value was 7.78%.
With `COc1ccc(C2CC(=O)C(/C=N/C3CCCCC3)=C(O)C2)cc1` (stereo not drawn) the “% Inhibition @ 10 uM” value was 8.6%.
In the case of `O=C(O)c1ccc(SCc2ccccc2)nc1`, the “% Inhibition @ 10 uM” value is reported as 4.28%.
With `O=C1c2ccccc2C(=O)N1C/C=C/CS(=O)(=O)c1ccccc1` the “% Inhibition @ 10 uM” value was 2.65%.
`COc1cccc(N2CCN(C3CC(=O)N(c4cc(OC)ccc4C)C3=O)CC2)c1` (stereo not drawn) was tested, and the “% Inhibition @ 10 uM” value was -6.05%.
In the case of `COc1ccc(-c2cc(-c3ccccc3)nc(N3CCCCC3)n2)cc1OC`, the “% Inhibition @ 10 uM” value is reported as 0.827%.
`CCOc1ccc(C2C(C(=O)OC)=CN(Cc3ccc(Cl)cc3)C=C2C(=O)OC)cc1` was tested, and the “% Inhibition @ 10 uM” value was 0.219%.
For `Cc1n[nH]c(C)c1CCCCOc1ccccc1`, the “% Inhibition @ 10 uM” value was -1.41%.
With `CSc1ccc(-c2oc(C)c(C)[n+]2[O-])cc1` the “% Inhibition @ 10 uM” value was -1.99%.
`CC(C)C(=O)Nc1ccc(N2CCN(S(C)(=O)=O)CC2)cc1` was tested, and the “% Inhibition @ 10 uM” value was -0.519%.
In the case of `O=C(CC12CC3CC(CC(C3)C1)C2)Nc1noc2ccccc12`, the “% Inhibition @ 10 uM” value is reported as 3.77%.
With `Oc1c(Br)cc(Br)cc1CN1CCN(c2cccc(C(F)(F)F)c2)CC1` the “% Inhibition @ 10 uM” value was -5.42%.
With `Nc1ccc(Cl)cc1-n1nc(-c2ccc(F)cc2)c2ccccc2c1=O` the “% Inhibition @ 10 uM” value was 5.16%.
In the case of `O=C(NCc1cccnc1)c1cc2nc(-c3cccs3)cc(C(F)(F)F)n2n1`, the “% Inhibition @ 10 uM” value is reported as -5.49%.
With `CC(C)c1cc(=O)oc2c3c4c(cc12)CCCN4CCC3` the “% Inhibition @ 10 uM” value was 33%.
In the case of `COC(=O)c1ccc(OCC2c3cc(OC)c(OC)cc3CCN2C(=O)c2ccc(C)cc2)cc1` (stereo not drawn), the “% Inhibition @ 10 uM” value is reported as 1.76%.
With `CCn1c(-c2ccc(OC)cc2)cs/c1=N\c1ccccc1` the “% Inhibition @ 10 uM” value was -0.132%.
`COc1ccccc1C(=O)Sc1ccc(Cl)cc1` was tested, and the “% Inhibition @ 10 uM” value was 0.163%.
In the case of `Cc1cc(C)n(-c2ccc3nnc(O)n3n2)n1`, the “% Inhibition @ 10 uM” value is reported as -0.828%.
`Cc1cc(C)c2nc(N(CCN(C)C)C(=O)c3ccco3)sc2c1` was tested, and the “% Inhibition @ 10 uM” value was 3.43%.
`CCN(CC)S(=O)(=O)c1ccc(NC(=O)C2CCCCC2)cc1` was tested, and the “% Inhibition @ 10 uM” value was -5.3%.
`Cc1nn(CC(=O)NCCc2c[nH]c3ccccc23)c(=O)c2cc3sccc3n12` was tested, and the “% Inhibition @ 10 uM” value was 1.8%.
With `Cc1cccc(CCNCc2c(C(=O)O)c(C)n(Cc3ccccc3F)c2C)c1` the “% Inhibition @ 10 uM” value was -7.36%.
`O=C(Cn1cc2c(n1)CCCC2)NCCc1ccc(Cl)cc1` was tested, and the “% Inhibition @ 10 uM” value was 3.4%.
`O=C(COc1cccc(N2C(=O)C3C4C=CC(C5CC45)C3C2=O)c1)c1ccc(F)cc1` (stereo not drawn) was tested, and the “% Inhibition @ 10 uM” value was -0.992%.
In the case of `COc1cc(NCc2ccc(C(F)(F)F)cc2)cc(OC)c1`, the “% Inhibition @ 10 uM” value is reported as 3.19%.
For `CCCc1nn2c(=O)cc(COc3ccc(/C=C(\C#N)C(=O)NCc4ccco4)cc3)nc2s1`, the “% Inhibition @ 10 uM” value was 1.15%.
`CC1(C)CCC[C@@]2(C)C1CC[C@]1(C)OC(=O)C[C@H]21` (stereo partly drawn) was tested, and the “% Inhibition @ 10 uM” value was 3.48%.
In the case of `O/N=C1/CC(O)(C(F)(F)F)Oc2ccccc21` (stereo not drawn), the “% Inhibition @ 10 uM” value is reported as -5.41%.
For `CCN(CC)CCNC(=O)CS(=O)Cc1nc(-c2ccc(Cl)cc2)oc1C` (stereo not drawn), the “% Inhibition @ 10 uM” value was 2.37%.
`O=C1c2ccccc2C(Nc2ccc(Cl)cn2)N1c1cccnc1` (stereo not drawn) was tested, and the “% Inhibition @ 10 uM” value was -1.03%.
`Cc1nnc(N2CCCC(C(=O)N3CCN(c4ccccn4)CC3)C2)c2nn(-c3ccccc3)c(C)c12` (stereo not drawn) was tested, and the “% Inhibition @ 10 uM” value was -3.24%.
In the case of `O=C(/C=C/C(=O)Nc1cccc(O)c1)Nc1cccc(O)c1`, the “% Inhibition @ 10 uM” value is reported as -4.11%.
In the case of `CN1C(=O)C(=CNc2cccc(F)c2)C(=O)N(C)C1=O`, the “% Inhibition @ 10 uM” value is reported as -0.996%.
In the case of `Cc1cc2nc(O)c(O)nc2cc1S(=O)(=O)NC1CCCCCC1`, the “% Inhibition @ 10 uM” value is reported as 1.27%.
With `CC(NC(=O)/C(C#N)=C/c1ccco1)c1ccccc1` (stereo not drawn) the “% Inhibition @ 10 uM” value was 16.1%.
For `Cc1cc(O)c(C2=Nc3ccccc3SC(c3ccc(O)cc3)C2)c(=O)o1` (stereo not drawn), the “% Inhibition @ 10 uM” value was 6.08%.
For `COc1ccc(-c2ccccc2)cc1NCC1=CC[C@H]2C[C@@H]1C2(C)C`, the “% Inhibition @ 10 uM” value was 1.83%.
In the case of `Cc1cc(C)nc(NC(=O)c2ccc(C(=O)Nc3cc(C)cc(C)n3)cc2)c1`, the “% Inhibition @ 10 uM” value is reported as -8.67%.
For `CC(C)OC(=O)c1nnn(-c2nonc2N)c1CSc1nc2ccccc2o1`, the “% Inhibition @ 10 uM” value was 12%.
For `Cn1c(=O)c2c(nc(-c3ccccc3)n2C)n(Cc2ccccc2)c1=O`, the “% Inhibition @ 10 uM” value was -9.3%.
`C=C(C)Cn1c(SCCC)nc2c1c(=O)n(C)c(=O)n2C` was tested, and the “% Inhibition @ 10 uM” value was -1.07%.
For `c1ccc(CCNc2nc(-c3c[nH]c4ccccc34)cs2)cc1`, the “% Inhibition @ 10 uM” value was 5.7%.
With `CC(C)c1ccc(-c2c(C#N)c(N)nc(SC3CCCCC3=O)c2C#N)cc1` (stereo not drawn) the “% Inhibition @ 10 uM” value was 0.587%.
`CCOC(=O)C1=C(CSc2nc3ccccc3s2)NC(=O)NC1c1ccccc1C(F)(F)F` (stereo not drawn) was tested, and the “% Inhibition @ 10 uM” value was 2.99%.
`Cc1ccc(Cn2c(C(=O)O)c(CNCCCc3ccccc3)c3ccc(C)cc32)cc1` was tested, and the “% Inhibition @ 10 uM” value was 4.67%.
With `C=CCOc1ccc(C(=O)N(Cc2sccc2C)C2CCS(=O)(=O)C2)cc1` (stereo not drawn) the “% Inhibition @ 10 uM” value was 2.19%.
With `COCC(=O)NCCc1nc2ccccc2n1C` the “% Inhibition @ 10 uM” value was 3.49%.
For `COc1ccc(CNC(=O)c2cccc(C)c2)cc1`, the “% Inhibition @ 10 uM” value was 0.526%.
For `CCOc1ccc(NC(=O)c2ccc(NS(=O)(=O)c3cccc(C(F)(F)F)c3)cc2)cc1`, the “% Inhibition @ 10 uM” value was -5.14%.
In the case of `O=C(/C=c1\[nH]c(=O)/c(=C/c2cccnc2)s1)c1ccc(Cl)cc1`, the “% Inhibition @ 10 uM” value is reported as -5.11%.
With `O=C(Cc1ccccc1)Nc1ccccc1C(F)(F)F` the “% Inhibition @ 10 uM” value was -6.86%.
`O=C(CN1CCN(Cc2ccccc2Cl)C1=O)NC1CCCCCCC1` was tested, and the “% Inhibition @ 10 uM” value was -6.91%.
In the case of `CC(=O)N1CCC(N2CCCCCC2)CC1`, the “% Inhibition @ 10 uM” value is reported as 1.62%.
In the case of `COc1ccc2c(CNCCc3cccs3)c(C(=O)O)n(Cc3ccc(F)cc3)c2c1`, the “% Inhibition @ 10 uM” value is reported as 6.17%.
`COc1ccccc1NC(=O)CCC(=O)O` was tested, and the “% Inhibition @ 10 uM” value was -1.77%.
For `C=CCOc1ccc(C2C3=C(CC(C)(C)CC3=O)N(CCOC)C3=C2C(=O)CC(C)(C)C3)cc1OC`, the “% Inhibition @ 10 uM” value was -2.44%.
With `CCCCCOc1ccc(C2c3c(-c4ccccc4O)n[nH]c3C(=O)N2CCCO)cc1OC` (stereo not drawn) the “% Inhibition @ 10 uM” value was 0.366%.
For `CCc1nn(-c2cc(Oc3ccccc3C)ncn2)c(N)c1C#N`, the “% Inhibition @ 10 uM” value was 1.57%.
